Source: the supplement of paper PMC7125110
± gives the standard error. Variants at the floor of the assay are shown more often than the library holds them.

B1: glmS ribozyme (parent)
chain: AUAAAAGCGCCAGAACUACAGAAAUGUAGUUGACGAGGAGGAGGUUUAUCGAAUUUUCGGCGGAUGCCUCCAAA

Columns and labels:
Settings in all cases: with glucosamine-6-phosphate
glucosamine-6-phosphate [1] = variants of: B1; experiment: self-cleavage kobs at 640 uM GlcN6P; higher = faster cleavage; RNA array
Outline: (§1)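 Weighted Michaelis–Menten fits across concentrations supplied kcat and KM, based on kobs from one- or two-exponential decay fits to normalised per-tile medians. The data came from barcoded ribozyme variants transcribed in situ by E. coli RNA polymerase on sequenced MiSeq chips and tracked at 37 °C by a hybridised Cy3 probe. Glucosamine-6-phosphate (40 μM to 10 mM) in HEPES/KCl/Mg(OAc)2 buffer was flowed in.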

glucosamine-6-phosphate [2] = variants of: B1; experiment: self-cleavage kobs at 2500 uM GlcN6P; higher = faster cleavage; RNA array
Outline: as §1

glucosamine-6-phosphate [3] = variants of: B1; experiment: self-cleavage kobs at 160 uM GlcN6P; higher = faster cleavage; RNA array
Outline: as §1

glucosamine-6-phosphate [4] = variants of: B1; experiment: self-cleavage kobs at 10000 uM GlcN6P; higher = faster cleavage; RNA array
Outline: as §1

Variant | self-cleavage kobs at 640 uM GlcN6P (glucosamine-6-phosphate [1]) [s⁻¹] | self-cleavage kobs at 2500 uM GlcN6P (glucosamine-6-phosphate [2]) [s⁻¹] | self-cleavage kobs at 160 uM GlcN6P (glucosamine-6-phosphate [3]) [s⁻¹] | self-cleavage kobs at 10000 uM GlcN6P (glucosamine-6-phosphate [4]) [s⁻¹]
U55G G66C C70U | 0.000456 ± 0.0001 | 0.000343 ± 8.7e-05 | – | –
G7C U49A C70A | – | < 1e-05 | < 1e-05 | –
A53C U55C | 0.00052 ± 9.2e-05 | 0.00148 ± 0.00029 | 0.00015 ± 4e-05 | 0.00116 ± 0.00017
U45G G60U G62C C70U | < 1e-05 | < 1e-05 | – | –
G7C U56C G63C C71U | – | – | < 1e-05 | –
U49A G62A C67G | < 1e-05 | – | – | –
G62A G63A | < 1e-05 | – | < 1e-05 | –
A42U U47A U54C | 3.85e-05 ± 9.6e-06 | – | – | –
A42G U47G C67U | 0.00108 ± 0.00019 | 0.0013 ± 0.00029 | – | –
U49G A64U C67A | < 1e-05 | < 1e-05 | – | –
G43U A52C U54C C70A | < 1e-05 | < 1e-05 | – | –
A6C G32U G41U U65A | – | < 1e-05 | < 1e-05 | –
A42G A48U | 0.000148 ± 4.3e-05 | – | – | 0.000576 ± 0.00013
G41C C58U U65G | < 1e-05 | < 1e-05 | – | –
G43U G44A G51A G59C G66C | < 1e-05 | – | – | < 1e-05
U57G C68A | 3.37e-05 ± 1.4e-05 | – | – | –
C50U U55C U65C | < 1e-05 | – | – | –
C10A G13A G32U | – | – | < 1e-05 | –
A6C A53U C70U | – | – | < 1e-05 | –
G41U G51A A53G C61U | < 1e-05 | < 1e-05 | – | –
U47G U49C | < 1e-05 | < 1e-05 | – | –
G44U U45A | 0.000175 ± 3.5e-05 | 0.000478 ± 9.7e-05 | – | 0.00046 ± 0.00014
A42C A52G C67U | < 1e-05 | < 1e-05 | < 1e-05 | –
A6U U45G | – | – | < 1e-05 | 4.41e-05 ± 9.1e-06
G63A U65G | < 1e-05 | < 1e-05 | – | < 1e-05
G43A U45A C61G | < 1e-05 | – | < 1e-05 | –
C58G G62A G63C C71A | 5.92e-05 ± 2.4e-05 | – | – | –

Variant | self-cleavage kobs at 640 uM GlcN6P (glucosamine-6-phosphate [1]) [s⁻¹] | self-cleavage kobs at 2500 uM GlcN6P (glucosamine-6-phosphate [2]) [s⁻¹] | self-cleavage kobs at 160 uM GlcN6P (glucosamine-6-phosphate [3]) [s⁻¹] | self-cleavage kobs at 10000 uM GlcN6P (glucosamine-6-phosphate [4]) [s⁻¹]
G7U G63U | – | < 1e-05 | < 1e-05 | < 1e-05
G60U C71A | < 1e-05 | < 1e-05 | – | < 1e-05
C8U C50G G63U | – | 5.35e-05 ± 2.6e-05 | 0.000108 ± 2.8e-05 | –
G13A G43C G66A | – | < 1e-05 | < 1e-05 | < 1e-05
C11A G63U | – | < 1e-05 | < 1e-05 | < 1e-05
G43A U46G C70G | < 1e-05 | < 1e-05 | – | –
G51U C61G C71G | 0.000494 ± 0.00014 | – | 0.000101 ± 2.2e-05 | –
G51C G63C C68G | < 1e-05 | < 1e-05 | – | –
G62A C67G | < 1e-05 | < 1e-05 | < 1e-05 | –
U49C A64C | < 1e-05 | < 1e-05 | < 1e-05 | –
U45G G66C | 0.000414 ± 0.00017 | 0.000927 ± 0.00042 | – | 0.00369 ± 0.00067
C8A U55C C61G | – | < 1e-05 | < 1e-05 | –
C50A C61G C68G | 6.76e-05 ± 1.9e-05 | – | – | 2.92e-05 ± 1.3e-05
G41U U69G | < 1e-05 | < 1e-05 | < 1e-05 | –
A64U C67U C70U | < 1e-05 | – | – | –
C50U G51C | < 1e-05 | < 1e-05 | < 1e-05 | –
G44A U54C | 0.000114 ± 1.7e-05 | – | – | –
G44A U47G C58U | < 1e-05 | < 1e-05 | < 1e-05 | –
U49A A64U | < 1e-05 | – | – | < 1e-05
G44U A53C U57A | < 1e-05 | – | – | –
G9C U30G U45A | – | – | < 1e-05 | –
A52G U55G | 0.000252 ± 2.5e-05 | – | 8.73e-05 ± 8.7e-06 | –
G9C A33C | – | < 1e-05 | < 1e-05 | < 1e-05
G41U G43A U49G | < 1e-05 | < 1e-05 | < 1e-05 | –
G9A A48G G51A G63A | – | < 1e-05 | < 1e-05 | –
G51C C58U | < 1e-05 | – | < 1e-05 | < 1e-05
G7C A33C A36G | – | < 1e-05 | < 1e-05 | –
